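Protocol summary: plate cells (96-well), add compound at 5 concentrations, incubate 48 h, interpolate endpoints linearly. The concentration for 50% growth inhibition is given as GI50. Definition used: TGI = concentration required for complete inhibition of growth.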 Square brackets hold non-standard residues; d marks the D form. Peptide text beside a SMILES is read from it. * marks the point of attachment. NMeF = CN[CH](Cc1ccccc1)C(=O)O; NMeV = CN[CH](C(=O)O)C(C)C; Boc = CC(C)(C)OC(=O)*; OBn = c1ccc(CO*)cc1

The test system of the experiment is NCI-H322M lung. Description: NCI tumour cell line growth inhibition, 48 h.
As for `Cc1ccc(Sc2ccccc2C23OC(C)(C4C(=O)N(c5ccccc5)C(=O)C42)N(C)C3=O)cc1` (stereo not drawn), the TGI is above 100 µM.

In turn, `Cc1cccc(NC(=O)C(=O)C(C2OC(=O)c3ccccc32)[N+](=O)[O-])c1C` (stereo not drawn) gave a TGI of 29.8 µM.

In the case of `O=c1[nH]c(=O)c2c([nH]1)[nH]c1ccc(Br)cc12`, the TGI was above 100 µM.

In the case of `Clc1cccc(-c2nc3cccc4c3n2Cc2ncccc2-4)c1`, the TGI was above 100 µM.

On to `CCOc1cc(-c2nncn2C)ccc1Nc1ncc2cc(C)nc(NCC(C)(C)C)c2n1`, for which the GI50 is above 100 µM and the TGI was above 100 µM.

As to `C#C[C@@]1(O)[C@@H](CO)O[C@@H](n2cc(Br)c3c(Cl)ccnc32)[C@@H]1O`, the GI50 was 0.485 µM and the TGI was above 100 µM.

The molecule `O=C1c2ccccc2C(=O)N1CCCOCc1c[nH]c(=O)[nH]c1=O` came in with a TGI above 100 µM.

As to `CC(=O)Nc1cc(Cl)cc(Cl)c1O`, the TGI is above 100 µM.

Take `CC1(C)Cc2c(sc3[nH]c(=S)[nH]c(=S)c23)CS1`: the TGI is above 100 µM.

On to `O=C(OCc1ccccc1)C(Cc1ccc(OCc2ccccc2)cn1)NC(=O)C(F)(F)F` (stereo not drawn), for which the TGI is above 100 µM.

`CN(C)[C@@H]1C(=O)C(C(=O)NCNc2nc3n[nH]nc3c(=O)[nH]2)=C(O)[C@@]2(O)C(=O)C3=C(O)c4c(O)cccc4[C@@](C)(O)[C@H]3C[C@@H]12` came in with a TGI above 100 µM.

The molecule `C[P+]1(Cc2ccccc2)CCCC1` displayed a TGI above 100 µM.

With `COC(=O)/C=C/CCC#Cc1ccccc1C#CCC/C=C/C(=O)OC`, the TGI is above 100 µM.

For the molecule `C=CCn1c2ccccc2c2c3c(c4c5ccccc5n(CC=C)c4c21)C(=O)N(O)C3=O`, the GI50 was 5.5 µM and the TGI was above 100 µM.

On to `CC(C)(C)[Si](C)(C)OCC1OC(n2cnc3c(=O)[nH]cnc32)CC1O` (stereo not drawn), for which the TGI is above 100 µM.

`COC(=O)c1cc(CC2Cc3cc4c(cc3C2=O)CCC4)cc2c1CCC2` (stereo not drawn) registered a TGI above 100 µM.

Molecule `O=C1Nc2ccc(Br)cc2/C1=N/S(=O)(=O)O` had a TGI above 100 µM.

Molecule `COc1cccc(NC(=O)CSc2nnc(Cc3ccccc3)o2)c1` registered a TGI above 100 µM.

For `O=c1nc2sc3ccccc3c(=O)n2[nH]1`, the TGI is above 100 µM.

`COCn1cc(C2=C(C)C(=O)C(C)=C(C)C2=O)cn1` yielded a TGI above 100 µM.

`CC1OC(n2cc(C(F)(F)F)c(=O)[nH]c2=O)C=CC1=O` (stereo not drawn): the TGI is 63.8 µM.

`N#C/C(=C\c1c(O)cc(O)cc1O)C(N)=O` returned a TGI above 100 µM.

With `O=C=C=P(c1ccccc1)(c1ccccc1)c1ccccc1`, the TGI is above 100 µM.

Molecule `Cc1cc(O)c2c(c1)C(=O)c1c(c(O)cc(O)c1-c1c(O)cc(O)c3c1C(=O)c1cc(C)cc(O)c1C3=O)C2=O` returned a TGI of 59.9 µM.

The molecule `C/C=C(\N=C=S)C(=O)OC1C(COC(C)=O)OC([C@]2(O)CC(=O)C(=N)C(C(=O)O)=C2O)C(O)C1OC1CC(OC)C(O)([C@@H](C)OC(=O)[C@@H](C)CC)C(C)O1` (stereo partly drawn) had a TGI of 38.7 µM.

For the molecule `O=C(Oc1ccccc1)N(c1ccccc1)c1ccccc1`, the GI50 is 61.2 µM and the TGI was above 100 µM.

For the molecule `Cn1c(CCCC(=O)O)nc2cc(N(CCCl)CCCl)ccc21`, the GI50 is above 92.1 µM and the TGI was above 100 µM.

`O=c1[nH]c2c(c(=O)[nH]1)SC(c1ccccc1)C2` (stereo not drawn) gave a TGI above 100 µM.

On to `c1ccc2sc(SSSc3nc4ccccc4s3)nc2c1`, for which the TGI is above 100 µM.

For the molecule `CC(=O)OCC1(C)C(O)CCC2(C)C1CCC1CC3CC12CCC3(O)CO` (stereo not drawn), the TGI is above 100 µM.

`CC1(C)CC[C@]2(C(=O)O)CC[C@]3(C)C(=CCC4=C5C[C@H](O)[C@H](O)[C@@](C)(CO)[C@@]5(C)CC[C@]43C)[C@@H]2C1` yielded a TGI above 100 µM.

`CN1CCN(c2cc3nc(-c4ccc(Cl)cc4)[nH]c3cc2F)CC1` registered a TGI of 33.7 µM.

The molecule `CC(C)C(NC(=O)OC(C)(C)C)C(=O)N(C)C(Cc1ccccc1)C(=O)N(C)C(C(=O)OCc1ccccc1)C(C)C` (stereo not drawn) (Boc-Val-[NMeF]-[NMeV]-OBn; configuration not given here) had a TGI above 100 µM.

In turn, `C=C1N(S(=O)(=O)c2ccc(C)cc2)C(=O)OCC12CCCC2` displayed a TGI above 100 µM.

`C/C(=N\NC(=O)c1ccncc1)c1sc(-n2nc(-c3ccccc3)cc2-c2ccccc2)nc1C`: the TGI is above 100 µM.

The molecule `COC(=O)C1=CC2C(=O)OC1C1C(=O)NC(=O)C21` (stereo not drawn) yielded a TGI above 100 µM.

On to `O=C(O)CCC(c1ccccc1)(c1ccccc1)c1ccccc1`, for which the TGI is above 100 µM.

On to `Cc1sc(C(=O)c2cncnc2N[C@@H]2C[C@H](COS(N)(=O)=O)[C@@H](O)C2)cc1[C@@H]1NCCc2ccc(Cl)cc21`, for which the GI50 is 11.5 µM and the TGI was 23.8 µM.

Regarding `C=C1CC[C@@H]2C13[C@@H]1[C@H](CC(=O)[C@@]23C)C1(C)C` (stereo partly drawn), the TGI was above 100 µM.

Regarding `O=Cc1ccc2ccocc1-2`, the TGI was above 100 µM.

On to `CCCCN=NNc1cn(C2OC(CO)C(O)C2O)c(=O)[nH]c1=O` (stereo not drawn), for which the TGI is above 100 µM.

In turn, `C[N+](C)(C)CC(=O)N/N=C(\Cc1nc2ccc([N+](=O)[O-])cc2[nH]c1=O)C(=O)Nc1nc2ccc([N+](=O)[O-])cc2s1` gave a TGI above 100 µM.

`COc1cccc2c1C(=O)c1c(O)c3c(c(O)c1C2=O)C[C@@](O)(C(=O)CO)CC3OC1CC(N)C(OC2CCCCO2)C(C)O1` (stereo partly drawn) showed a TGI of 16.9 µM.

`Clc1sc(Cl)c2c1[C@H](Cl)C[C@@H]2Cl` returned a TGI above 100 µM.

`Cc1ccc(N2C(=O)C3c4[nH]c5ccc(C)cc5c4C4CCC(C(C)(C)C)CC4C3C2=O)cc1` (stereo not drawn): the TGI is above 100 µM.

`CCOC(=O)CN1C(=O)NC(C)(c2ccccc2)C1=O` (stereo not drawn) registered a TGI above 100 µM.

Molecule `CN(C)c1ccc(C=Nc2ccc(-c3nc4ccccc4s3)cc2)cc1` yielded a TGI above 100 µM.

Regarding `COC(=O)[C@]12CC[C@@H](C)[C@H](C)[C@@H]1C1=CC[C@@H]3[C@@]4(C)C(C=O)=C[C@@](C)(CO)[C@@H]4[C@H](O)C[C@@]3(C)[C@]1(C)CC2`, the GI50 was 12.3 µM and the TGI is 25.7 µM.

`Oc1ccc2c(=S)cc(-c3ccc(Br)cc3)oc2c1O`: the GI50 is 1.89 µM and the TGI stood at 6.37 µM.

In the case of `CC(C)(C)OC(=O)N(O)[C@@H]1CC[C@H](n2cnc3c(N)ncnc32)C1`, the TGI was above 100 µM.

In turn, `CCOC(=O)[C@@H]1[C@@H](c2ccccc2)N(C)O[C@@]1(c1ccccc1)C(F)(F)F` yielded a TGI above 100 µM.

In the case of `C/C=C/c1cc2c(cc1O)CC[C@@H]1[C@@H]2CC[C@]2(C)[C@@H](O)CC[C@@H]12`, the TGI amounted to 16 µM.

For the molecule `COc1ccc(N2C(=O)C(Cl)C2c2cc3cc(Br)ccc3nc2Cl)cc1` (stereo not drawn), the TGI was above 25 µM.

For `CN(C)c1ccc(/C=C(\C#N)c2cc3ccccc3[nH]2)cc1`, the GI50 was 2.88 µM and the TGI was above 100 µM.

`N=c1oc2ccccc2cc1C(=O)Nc1cccc2ccccc12`: the TGI was above 100 µM.

For `CN1CCN(CCCNC(=O)c2c3c(n4ccccc24)C(=O)c2ncccc2C3=O)CC1`, the GI50 was 1.47 µM and the TGI was found to be 8.81 µM.

`CN1CCC2(c3ccccc3)CC(=O)/C(=C/c3ccc(Cl)c(Cl)c3)C1C2` (stereo not drawn) registered a TGI of 15.7 µM.

On to `Cn1c(=O)c2ccccc2[n+]2c(-c3cccc([N+](=O)[O-])c3)csc12`, for which the TGI is above 100 µM.

As for `Cc1ccc(N(C=O)c2c([N+](=O)[O-])cc([N+](=O)[O-])c3c2=[N+]([O-])CN=3)cc1`, the TGI is above 100 µM.

`CCN(CC)CCNc1ccc2ncn3c4ccc(OC)cc4c(=O)c1c23`: the TGI amounted to 18.8 µM.

As for `C=CCCCCCCCCCP(=O)(c1ccccc1)c1ccc2c(c1)OCCOCCOCCOCCO2` (stereo not drawn), the TGI is 28.7 µM.

`CN1CCC2(CC1)N=C(SCC(=O)Nc1cnc3ccccc3c1)C(c1ccc(Br)cc1)=N2`: the GI50 is 3.18 µM and the TGI amounted to 12.7 µM.

(Values after PubChem BioAssay (NCI).)
